Assay results published in PubChem BioAssay AID624417 (National Center for Advancing Translational Sciences (NCATS), 2012).
Screen size: about 410,000 compounds; about 6,400 (1.6%) were called active. This list was built around the results that the source calls inconclusive (neither active nor inactive); the mix of calls is not that of the screen. The call rests on the fitted dose curve; in most records, active means well fitted inhibition curve with a large enough effect; inconclusive means small, poorly fitted or top-dose-only effect; inactive means no such curve, though single readings can be large or run the other way. No potency is given beside an inconclusive call; the fits are too rough.

Target: Glucagon-like peptide 1 receptor (Homo sapiens) (UniProt P43220)
Assay: qHTS of GLP-1 Receptor Inverse Agonists (Inhibition Mode); further: nearly all actives have a fitted effect of over 55% in size
Conditions: HEK293 GLP-1R CRE-luciferase, luminescence, 24 h, GLP-1R form is constitutively active; series mostly up to 38.3 µM
How it was run: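 Luminescence readout: a drop in cAMP-driven luciferase signal flags inverse agonism at a constitutively active GLP-1R stably expressed in HEK293. Compound exposure lasted 24 hr at 37 deg C, 5% CO2.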
Potency means the concentration at half of the fitted maximal effect; tags describe the fitted curve by direction and shape.

Chain of UniProt P43220 (P43220 whole entry, looked up): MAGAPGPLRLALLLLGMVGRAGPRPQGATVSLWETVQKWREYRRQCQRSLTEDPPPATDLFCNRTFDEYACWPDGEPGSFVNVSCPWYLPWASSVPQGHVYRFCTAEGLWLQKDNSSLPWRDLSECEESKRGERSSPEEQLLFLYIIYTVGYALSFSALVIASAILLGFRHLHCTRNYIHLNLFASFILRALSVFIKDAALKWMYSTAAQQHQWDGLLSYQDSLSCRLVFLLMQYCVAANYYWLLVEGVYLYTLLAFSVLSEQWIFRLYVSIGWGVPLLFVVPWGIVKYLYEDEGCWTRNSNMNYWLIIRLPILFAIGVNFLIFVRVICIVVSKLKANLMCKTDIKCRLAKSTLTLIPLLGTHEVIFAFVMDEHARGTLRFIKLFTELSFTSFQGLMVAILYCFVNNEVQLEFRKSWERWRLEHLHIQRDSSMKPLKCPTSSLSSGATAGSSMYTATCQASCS

Structure (SMILES) | Potency
COc1ccccc1-n1cnc2cc(NCc3ccccc3O)ccc21 | inconclusive [inhibitor, single point]
CCN(c1ccc(NC(=O)CCc2nc3sc4c(c3c(=O)[nH]2)CCCC4)cc1)C(C)C | inconclusive [inhibitor, partial curve, poor fit]
COc1ccc(-c2cc(C)nc(SCc3cccc(C(=O)O)c3)n2)cc1 | inactive
COc1ccccc1Cc1c(-c2ccccc2)nc2c(C)cc(Br)cn12 | inconclusive [inhibitor, partial curve, poor fit]
O=C(Nc1ccc(CN2CCOCC2)cc1)c1ccc(-c2ccc(Cl)cc2Cl)o1 | inconclusive [inhibitor, partial curve, poor fit]
CN(C)C(=O)c1ccc(NC(=O)c2cncc(Br)c2)cc1 | inactive
O=C(COc1ccccc1)Nc1ccccc1C(=O)OCc1cc(=O)n2nc(C3CC3)sc2n1 | inactive
CCOC(=O)Cn1c(=O)n(-c2ccccc2OC)c2nc(-c3ccccc3C)nc(C(N)=O)c21 | inconclusive [inhibitor, single point]
O=C(CNCCc1ccc(Cl)cc1)Nc1ccc(C(=O)N2CCCCC2)cc1 | inconclusive [inhibitor, partial curve, poor fit]
CCCCN(CCCC)CC(O)CN(c1cc([N+](=O)[O-])ccc1OC)S(=O)(=O)c1ccccc1 (stereo unspecified) | inconclusive [inhibitor, single point]
CCOC(=O)C1=CN(Cc2cccc(F)c2)S(=O)(=O)N(CC)C1c1ccccc1 (stereo unspecified) | inconclusive [inhibitor, partial curve, poor fit]
Cc1cccc(-c2nc(SCC(=O)Nc3ccc4c(c3)OCCO4)c(-c3ccccc3)[nH]2)c1 | inconclusive [inhibitor, partial curve, poor fit]
CCOC(=O)Nc1ccc2c(c1)C(=NNC(=S)NC)c1ccccc1-2 | inconclusive [inhibitor, partial curve, poor fit]
Cc1cc(C)cc(N(CC(=O)NCc2ccccc2Cl)S(=O)(=O)c2c(C)noc2C)c1 | inconclusive [inhibitor, partial curve, poor fit]
C=CCn1c(CSCc2ccccc2)nnc1SCC(=O)N1CCN(c2ccccc2)CC1 | inconclusive [inhibitor, partial curve, poor fit]
CCCCn1c(SCC(=O)Nc2cc(C(F)(F)F)ccc2Cl)nnc1C(CC)N(C)C (stereo unspecified) | inconclusive [inhibitor, single point]
